The subject of test [1] is Acinetobacter baumannii AB6870155. In words: respiration area under curve on compound as sole carbon source (Biolog PM, 48 h) (arbitrary Omnilog units x h (AUC)); higher = more carbon source utilisation / respiration. Particulars: Biolog inoculating fluid, temperature: 37 °C.
The subject of test [2] is Klebsiella pneumoniae KP6870155. The test is described as above. Particulars: Biolog inoculating fluid, temperature: 37 °C.

Molecules are shown by their SMILES. The list shows a part of the results.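 The calls were made as follows: active = average curve height above 101 Omnilog units; inactive = average height at or below 101.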 Most values come without repeats; read them as rough.

Turning to `O=C(O)[C@H]1OC(O)[C@H](O)[C@@H](O)[C@H]1O` (stereo partly drawn) [D-Galacturonic Acid], the “respiration area under curve” value in test [1] was inactive: 3230; in test [2], active: 11400.
On the same counts, the results for `O[C@@H]1[C@H](O)[C@H](O)CO[C@H]1O` [D-Ribose] are active: 11700 and active: 12400.
For the compound `C[C@H](N)C(=O)NCC(=O)O` [L-Alanyl-Glycine], the “respiration area under curve” value in test [1] was inactive: 3020; in test [2], active: 11000.
On the same counts, the results for `O=C[C@H](O)[C@H](O)[C@@H](O)CO` [L-Lyxose] are inactive: 3390 and active: 10000.
On the same counts, the results for `OC[C@H]1OC(O)[C@@H](O)[C@@H](O)[C@@H]1O` (stereo partly drawn) [D-Mannose] are inactive: 2880 and active: 12400.
For the compound `N[C@@H](CC(=O)O)C(=O)O` [L-Aspartic Acid], the results for the “respiration area under curve” value in test [1] and in test [2] were active: 12000 and active: 11600, respectively.
On to `CC(O)(CC(=O)O)C(=O)O` (stereo unspecified) [Citramalic Acid], for which the “respiration area under curve” value was active: 10100 in test [1] and inactive: 3470 in test [2].
On the same counts, the results for `CC(=O)N[C@H]1[C@H]([C@H](O)[C@H](O)CO)OC(O)(C(=O)O)C[C@@H]1O` (stereo partly specified) [N-Acetyl-Neuraminic Acid] are inactive: 1540 and inactive: 3550.
Regarding `O=C(O)C(O)C(O)C(=O)O` (stereo unspecified) [m-Tartaric Acid], the “respiration area under curve” value in test [1] was inactive: 1430; in test [2] it was inactive: 3430.
As to `OC[C@@H](O)[C@@H](O)[C@H](O)[C@H](O)CO` [D-Mannitol], the “respiration area under curve” value in test [1] is inactive: 1910; in test [2], active: 11600.
As for `CO[C@@H]1O[C@H](C(=O)O)[C@@H](O)[C@H](O)[C@H]1O` [Beta-Methyl-D-Glucuronic Acid], the “respiration area under curve” value in test [1] is inactive: 1640; in test [2] it was inactive: 3670.
On the same counts, the results for `CCC(=O)O` [Propionic Acid] are active: 10500 and inactive: 3200.
On the same counts, the results for `CC(=O)CC(=O)O` [Acetoacetic Acid] are inactive: 3230 and inactive: 4630.
On the same counts, the results for `OC[C@H]1O[C@@H](O[C@H]2[C@H](O)[C@@H](O)[C@@H](O)O[C@@H]2CO)[C@H](O)[C@@H](O)[C@H]1O` [Alpha-D-Lactose] are inactive: 1770 and active: 10900.
As to `CO[C@@H]1O[C@H](CO)[C@@H](O)[C@H](O)[C@H]1O` [Beta-Methyl-D-Glucoside], the “respiration area under curve” value is inactive: 1920 in test [1] and active: 11000 in test [2].
On the same counts, the results for `COC(=O)[C@@H](C)O` [D-Lactic Acid Methyl Ester] are active: 8930 and active: 10600.
On the same counts, the results for `O=C(O)CCCCCCCCC(=O)O` [Sebacic Acid] are active: 10200 and inactive: 2900.
As to `OC[C@@H](O)[C@@H](O[C@H]1O[C@H](CO)[C@@H](O)[C@H](O)[C@H]1O)[C@H](O)[C@@H](O)CO` [Maltitol], the “respiration area under curve” value was inactive: 1380 in test [1] and active: 10700 in test [2].
With `O=C1O[C@H](CO)[C@@H](O)[C@H]1O` [D-Ribono-1,4-Lactone], the “respiration area under curve” value in test [1] is active: 10700; in test [2], inactive: 2720.
Turning to `N[C@@H](Cc1ccccc1)C(=O)O` [L-Phenylalanine], the results for the “respiration area under curve” value in test [1] and in test [2] were active: 11400 and inactive: 7580, respectively.
With `OC[C@H]1O[C@@](CO)(O[C@H]2O[C@H](CO)[C@@H](O)[C@H](O)[C@H]2O)[C@@H](O[C@H]2O[C@H](CO)[C@@H](O)[C@H](O)[C@H]2O)[C@@H]1O` [D-Melezitose], the figures for the “respiration area under curve” value in test [1] and in test [2] were inactive: 1520 and inactive: 4070, respectively.
As for `CCCCCC(=O)O` [Caproic Acid], the “respiration area under curve” value in test [1] is active: 10400; in test [2], inactive: 2680.
As to `NCC(=O)N[C@@H](CC(=O)O)C(=O)O` [Glycyl-L-Aspartic Acid], the “respiration area under curve” value in test [1] is inactive: 2560; in test [2], active: 10600.
`N[C@@H](Cc1c[nH]cn1)C(=O)O` [L-Histidine]: the “respiration area under curve” value in test [1] is active: 11100; in test [2] it was active: 11900.
On the same counts, the results for `C[C@H](O)C(=O)O` [L-Lactic Acid] are active: 11400 and active: 11000.
Regarding `OC[C@H]1O[C@H](OC[C@H]2O[C@H](O[C@]3(CO)O[C@H](CO)[C@@H](O)[C@@H]3O)[C@H](O)[C@@H](O)[C@@H]2O)[C@H](O)[C@@H](O)[C@H]1O` [D-Raffinose], the “respiration area under curve” value was inactive: 1980 in test [1] and active: 11900 in test [2].
On the same counts, the results for `O=C(O)[C@H](O)[C@@H](O)C(=O)O` [L-Tartaric Acid] are inactive: 2530 and active: 10700.
Consider `O=C(O)Cc1ccc(O)cc1` [p-Hydroxy Phenyl Acetic Acid], for which the “respiration area under curve” value in test [1] was inactive: 2340; in test [2], active: 11100.
On the same counts, the results for `C/C(=C/C(=O)O)C(=O)O` [Citraconic Acid] are active: 8200 and inactive: 3190.
With `O=C(CO)CO` [Dihydroxy Acetone], the “respiration area under curve” value is inactive: 3350 in test [1] and active: 12100 in test [2].
On the same counts, the results for `OC[C@H](O)C(O)[C@@H](O)CO` [L-Arabitol] are inactive: 1630 and inactive: 4180.
On the same counts, the results for `OC[C@@H](O)[C@@H](O[C@@H]1O[C@H](CO)[C@H](O)[C@H](O)[C@H]1O)[C@H](O)[C@@H](O)CO` [Lactitol] are inactive: 1560 and active: 9520.
On the same counts, the results for `O=C(O)CCC(=O)O` [Succinic Acid] are active: 11400 and active: 10600.

The values are drawn from the supplement of paper PMC9911699.
